In the supplement of paper PMC6089552:
The campaign covered roughly 3,200 compounds. About 300 (9.4%) showed activity. This is a selection; strong and weak results do not stand in their true shares.

System: A673/TR/shEF
Test: cell viability (LOESS-normalised, relative to median of negative controls) (log2 ratio); higher = more viable cells (less compound effect), active = hit call of the paper (over 3 MAD below the median)
Conditions: treatment time: 72 h
Summary of the method: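 A673/TR/shEF Ewing sarcoma cells (1,500 per well, 384-well plates) were grown with or without doxycycline to induce EWS-FLI1 shRNA knockdown, starting 24 h before compounds. Library compounds at two or more concentrations, with DMSO controls, were added for three days. Cell viability was read by CellTiter-Glo luminescence on an Envision reader, then LOESS-corrected per plate, divided by the median of negative controls and log2-transformed. Hits were wells at least three median absolute deviations from the median of all screened wells.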

[1] = 0.25 µM, library screen: screen2, EWS-FLI1 expression: high (no doxycycline)
[2] = 0.25 µM, library screen: screen2, EWS-FLI1 expression: low (doxycycline-induced shRNA knockdown)
[3] = 2.5 µM, library screen: screen2, EWS-FLI1 expression: high (no doxycycline)
[4] = 2.5 µM, library screen: screen2, EWS-FLI1 expression: low (doxycycline-induced shRNA knockdown)
[5] = 0.103 µM, library screen: screen3, EWS-FLI1 expression: high (no doxycycline)
[6] = 0.103 µM, library screen: screen3, EWS-FLI1 expression: low (doxycycline-induced shRNA knockdown)
[7] = 0.25 µM, library screen: screen1, EWS-FLI1 expression: high (no doxycycline)
[8] = 0.25 µM, library screen: screen1, EWS-FLI1 expression: low (doxycycline-induced shRNA knockdown)
[9] = 0.308 µM, library screen: screen3, EWS-FLI1 expression: high (no doxycycline)
[10] = 0.308 µM, library screen: screen3, EWS-FLI1 expression: low (doxycycline-induced shRNA knockdown)
[11] = 0.926 µM, library screen: screen3, EWS-FLI1 expression: high (no doxycycline)
[12] = 0.926 µM, library screen: screen3, EWS-FLI1 expression: low (doxycycline-induced shRNA knockdown)
[13] = 2.5 µM, library screen: screen1, EWS-FLI1 expression: high (no doxycycline)
[14] = 2.5 µM, library screen: screen1, EWS-FLI1 expression: low (doxycycline-induced shRNA knockdown)
[15] = 2.8 µM, library screen: screen3, EWS-FLI1 expression: high (no doxycycline)
[16] = 2.8 µM, library screen: screen3, EWS-FLI1 expression: low (doxycycline-induced shRNA knockdown)
[17] = 8.3 µM, library screen: screen3, EWS-FLI1 expression: high (no doxycycline)
[18] = 8.3 µM, library screen: screen3, EWS-FLI1 expression: low (doxycycline-induced shRNA knockdown)
[19] = 25 µM, library screen: screen3, EWS-FLI1 expression: high (no doxycycline)
[20] = 25 µM, library screen: screen3, EWS-FLI1 expression: low (doxycycline-induced shRNA knockdown)

## COc1cc2nc(N3CCN(C(=O)C4=C[C@H]5C=C[C@@H]4CC5)CC3)nc(N)c2cc1OC
[1]
  cell viability (log2): inactive: 0.165
[2]
  cell viability (log2): inactive: 0.0668
[3]
  cell viability (log2): inactive: 0.132
[4]
  cell viability (log2): inactive: 0.0728

## N=c1nc(N2CCCCC2)cc(N)n1O
[5]
  cell viability (log2): inactive: 0.069
[6]
  cell viability (log2): inactive: 0.0737
[7]
  cell viability (log2): inactive: 0.0723
[8]
  cell viability (log2): inactive: -0.00153
[1]
  cell viability (log2): inactive: 0.135
[2]
  cell viability (log2): inactive: 0.117
[9]
  cell viability (log2): inactive: -0.00781
[10]
  cell viability (log2): inactive: 0.0103
[11]
  cell viability (log2): inactive: 0.0329
[12]
  cell viability (log2): inactive: 0.0505
[13]
  cell viability (log2): inactive: 0.141
[14]
  cell viability (log2): inactive: 0.0368
[3]
  cell viability (log2): inactive: 0.0983
[4]
  cell viability (log2): inactive: 0.105
[15]
  cell viability (log2): inactive: -0.0316
[16]
  cell viability (log2): inactive: 0.051
[17]
  cell viability (log2): inactive: 0.033
[18]
  cell viability (log2): inactive: 0.0706
[19]
  cell viability (log2): inactive: -0.0136
[20]
  cell viability (log2): inactive: 0.097

## CC1(C)C[C@H](O)[C@]23CC[C@@H](O)[C@@](C)(CC[C@@H]12)C3
[7]
  cell viability (log2): inactive: 0.155
[8]
  cell viability (log2): inactive: 0.054
[13]
  cell viability (log2): inactive: 0.181
[14]
  cell viability (log2): inactive: 0.0139

## COc1cc(CNC(=O)CCCCCCC(C)C)ccc1O
[1]
  cell viability (log2): inactive: 0.0355
[2]
  cell viability (log2): inactive: 0.0882
[3]
  cell viability (log2): inactive: 0.0716
[4]
  cell viability (log2): inactive: 0.0265

## N#CC[C@H](C1CCCC1)n1cc(-c2ncnc3[nH]ccc23)cn1
[5]
  cell viability (log2): inactive: 0.0244
[6]
  cell viability (log2): inactive: 0.0464
[9]
  cell viability (log2): inactive: 0.0636
[10]
  cell viability (log2): inactive: 0.0529
[11]
  cell viability (log2): inactive: 0.0664
[12]
  cell viability (log2): inactive: 0.0824
[15]
  cell viability (log2): inactive: 0.077
[16]
  cell viability (log2): inactive: 0.076
[17]
  cell viability (log2): inactive: 0.111
[18]
  cell viability (log2): inactive: 0.157
[19]
  cell viability (log2): inactive: 0.0975
[20]
  cell viability (log2): inactive: 0.133

## C[N+](C)(C)CC(=O)[O-]
[7]
  cell viability (log2): inactive: 0.101
[8]
  cell viability (log2): inactive: 0.159
[1]
  cell viability (log2): inactive: 0.279
[2]
  cell viability (log2): inactive: 0.119
[13]
  cell viability (log2): inactive: 0.0973
[14]
  cell viability (log2): inactive: 0.195
[3]
  cell viability (log2): inactive: 0.084
[4]
  cell viability (log2): inactive: 0.0352

## COc1cc(O)c(C(=O)/C=C/c2ccccc2)c(OC)c1
[7]
  cell viability (log2): inactive: 0.0291
[8]
  cell viability (log2): inactive: 0.0765
[13]
  cell viability (log2): inactive: 0.107
[14]
  cell viability (log2): inactive: 0.0766

## CC(C)N1C(=O)C(=Cc2ccccc2F)SC1=S
[7]
  cell viability (log2): inactive: 0.0965
[8]
  cell viability (log2): inactive: 0.0324
[13]
  cell viability (log2): inactive: 0.0812
[14]
  cell viability (log2): inactive: -0.039

## NNC(=O)c1ccncc1.Nc1ccc(C(=O)O)c(O)c1
[7]
  cell viability (log2): inactive: 0.145
[8]
  cell viability (log2): inactive: 0.169
[13]
  cell viability (log2): inactive: 0.145
[14]
  cell viability (log2): inactive: 0.0892

## O=C(O)c1ccccc1Nc1cccc(OCc2ccc3ccccc3n2)c1
[1]
  cell viability (log2): inactive: 0.128
[2]
  cell viability (log2): inactive: 0.0806
[3]
  cell viability (log2): inactive: 0.186
[4]
  cell viability (log2): inactive: 0.057

## COc1cc(C(O)C(=O)O)ccc1O (stereo not given)
[1]
  cell viability (log2): inactive: 0.194
[2]
  cell viability (log2): inactive: 0.0173
[3]
  cell viability (log2): inactive: 0.157
[4]
  cell viability (log2): inactive: 0.0587

## COC1=C(OC)C(=O)C(C/C=C(\C)CC/C=C(\C)CC/C=C(\C)CC/C=C(\C)CC/C=C(\C)CC/C=C(\C)CC/C=C(\C)CC/C=C(\C)CC/C=C(\C)CCC=C(C)C)=C(C)C1=O
[7]
  cell viability (log2): inactive: 0.0717
[8]
  cell viability (log2): inactive: 0.153
[13]
  cell viability (log2): inactive: 0.193
[14]
  cell viability (log2): inactive: 0.233

## COc1ccc(CC(=O)c2ccc(O)cc2O)cc1
[7]
  cell viability (log2): inactive: 0.0221
[8]
  cell viability (log2): inactive: -0.0106
[13]
  cell viability (log2): inactive: 0.12
[14]
  cell viability (log2): inactive: 0.0534

## Cc1c(OCC(F)(F)F)ccnc1C[S+]([O-])c1nc2ccccc2[nH]1 (stereo not given)
[5]
  cell viability (log2): inactive: 0.0918
[6]
  cell viability (log2): inactive: 0.101
[7]
  cell viability (log2): inactive: 0.136
[8]
  cell viability (log2): inactive: 0.0633
[1]
  cell viability (log2): inactive: 0.166
[2]
  cell viability (log2): inactive: 0.0843
[9]
  cell viability (log2): inactive: 0.0516
[10]
  cell viability (log2): inactive: 0.0264
[11]
  cell viability (log2): inactive: 0.0709
[12]
  cell viability (log2): inactive: 0.0884
[13]
  cell viability (log2): inactive: 0.133
[14]
  cell viability (log2): inactive: 0.126
[3]
  cell viability (log2): inactive: 0.122
[4]
  cell viability (log2): inactive: 0.0984
[15]
  cell viability (log2): inactive: 0.0259
[16]
  cell viability (log2): inactive: 0.0107
[17]
  cell viability (log2): inactive: -0.0254
[18]
  cell viability (log2): inactive: 0.0817
[19]
  cell viability (log2): active: -0.241
[20]
  cell viability (log2): inactive: 0.0393

## [N-]=[N+]=Nc1ccc(C(=O)CSC[C@H](NC(=O)CC[C@H](N)C(=O)O)C(=O)NCC(=O)O)cc1
[1]
  cell viability (log2): inactive: 0.136
[2]
  cell viability (log2): inactive: 0.104
[3]
  cell viability (log2): inactive: 0.109
[4]
  cell viability (log2): inactive: 0.172

## Cn1c(=O)c2c(ncn2C)n(C)c1=O
[7]
  cell viability (log2): inactive: 0.139
[8]
  cell viability (log2): inactive: 0.11
[1]
  cell viability (log2): inactive: 0.294
[2]
  cell viability (log2): inactive: 0.141
[13]
  cell viability (log2): inactive: 0.191
[14]
  cell viability (log2): inactive: 0.106
[3]
  cell viability (log2): inactive: 0.162
[4]
  cell viability (log2): inactive: 0.113

## CCCCCCCC/C=C\CCCCCCCC(=O)O
[1]
  cell viability (log2): inactive: 0.0706
[2]
  cell viability (log2): inactive: 0.117
[3]
  cell viability (log2): inactive: 0.0994
[4]
  cell viability (log2): inactive: 0.08

## CCC(C)C(N)C1=NC(C(=O)N[C@@H](CC(C)C)C(=O)N[C@H](CCC(=O)O)C(=O)N[C@H](C(=O)N[C@H]2CCCCNC(=O)[C@H](CC(N)=O)NC(=O)[C@@H](CC(=O)O)NC(=O)[C@H](Cc3cnc[nH]3)NC(=O)[C@@H](Cc3ccccc3)NC(=O)[C@H]([C@@H](C)CC)NC(=O)[C@@H](CCCN)NC2=O)[C@@H](C)CC)CS1 (stereo not given in full)
[7]
  cell viability (log2): inactive: 0.0992
[8]
  cell viability (log2): inactive: -0.0505
[13]
  cell viability (log2): inactive: 0.131
[14]
  cell viability (log2): inactive: 0.0875
